Test results as given in the supplement of paper PMC5499739.
The full ranking holds about 16,000 sequences; the median of “Z-score” is about -0.37, and the highest 2% start at about 3.2. This is one part of the list.

Test system: RBM10 RRM1-ZnF (GST-tagged construct)
Test: RNAcompete 7-mer binding Z-score; higher = stronger binding preference
Experimental: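 RNAcompete: 20 pmol GST-tagged RBM10 RNA-binding constructs were incubated with a designed RNA pool of about 241,000 sequences up to 41 nt (1.5 nmol) on glutathione beads for 30 min at 4 °C and washed. Bound RNAs were identified by microarray hybridisation. Each RNA 7-mer is scored by a one-sided Z-score of its enrichment, computed over probes that contain the 7-mer within longer pool sequences.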

Sequence | RNAcompete 7-mer binding Z-score
CUCGAGC | -0.594
GCCCAGU | -0.61
CUACUGA | -0.659
GAAGCCG | -0.227
CUAAACG | -0.412
CUACUCG | -0.565
CGAAGAA | 0.0885
GCAUCGA | -0.22
CUGUUUG | -0.49
CAAAUUA | -0.604
CUGUCAG | -0.386
GCUUAUU | -0.795
AUCUGCA | -0.831
UCGCCCA | -0.607
UAUCACC | -0.782
AUCCCAU | -0.818
UAAAGCG | 0.29
UUGACUA | -0.467
CCCGGGA | 0.235
GUAAUAC | -0.171
CGGGAAC | 1.52
ACUCCGG | -0.285
UCGACUC | -0.808
CGUGCAU | -0.357
CACGUCG | -0.308

Sequence | RNAcompete 7-mer binding Z-score
GGUGGCC | 1.27
GUUCUAU | -0.717
UUGGGGC | 1.95
AAUAACC | -0.789
UGGAUUU | 0.621
GUCACCG | -0.347
CGGAGCA | 0.709
AUUCGGA | -0.0772
GAGGAUU | 1.21
CUAGCUC | -0.626
GUCGCCC | -0.383
GGUAAAC | 0.959
UGCCCUG | -0.34
GAAUGAU | 0.189
CGGGUAG | 2.18
CUUUUUA | -0.906
GUGUACA | 0.397
CAGCCGC | -0.47
CAUGAAC | -0.331
AGUAGUC | -0.376
ACUAGGA | 0.719
CACCUGC | -0.652
GACAAUU | -0.256
AGAGCCU | -0.922
AACUGUG | 0.105

Sequence | RNAcompete 7-mer binding Z-score
AACCACC | -0.584
CGUGAUU | -0.353
AGUCAUG | -0.116
AAAACAC | -0.441
GGAGAUA | 1.94
CGAGGGU | 3.7
GUCAUUG | -0.253
ACAGAUG | 0.452
CUUAGAU | -0.594
GUGUAAA | 0.618
CUUAUCA | -0.733
AAAAGCA | -0.227
CUGCUGU | -0.626
GGGCAAC | 1.84
AAUCGUU | -0.662
AACCCAC | -0.574
UUAUUGA | -0.555
CCGGGAG | 0.904
GUGGCUU | -0.0707
GGUCUGA | -0.113
UCCAUCU | -0.867
CAUCACU | -0.766
UGGGGUC | 2.57
AAUCGAU | -0.353
CGUGGGU | 2.81

Sequence | RNAcompete 7-mer binding Z-score
CUUUGGU | -0.298
UGCACGG | 0.586
UUUUCCG | -0.759
CAAUGAA | -0.496
UGGAUGC | 1.17
GCCGUUC | -0.798
GCUUAAU | -0.642
UUUGACA | -0.571
AGACGCU | -0.932
CUGAAGC | -0.529
UCGCUAC | -0.665
AAAGCAU | -0.415
GUCCGCU | -0.694
CUCGAGU | -0.539
CCAACAG | -0.314
ACAGGUU | 1.42
CCCGAAU | -0.646
UUUGGAA | 0.631
CACUUGG | -0.194
GGCCGAC | 0.0658
AACGAGU | 0.0268
CGACGAU | -0.425
AAUGGUC | 0.368
AGACCAC | -0.909
AACACCC | -0.47

Sequence | RNAcompete 7-mer binding Z-score
CCGGGAA | 0.761
CGGAGUG | 1.58
CCGACCG | -0.444
GAGGCCU | -0.386
UUAACGG | 0.157
UGCCCAU | -0.685
ACCCGGC | -0.516
AAGCCCU | -0.831
GCUAGCU | -0.402
UAGACAA | -0.204
CACAUUG | -0.522
GUGACUA | 0.218
CGUAAAU | -0.519
UCCUGUA | -0.798
GCUUGCC | -0.597
GCGAAUG | 0.634
AUAACCU | -0.805
UAAAAAA | -0.464
GACCAGC | -0.578
UUGCGCA | -0.568
CACUCCG | -0.597
AGGGCUG | 1.68
AAGGAAU | 2.28
AAAAACC | -0.776
GUAAUAA | -0.0642

Sequence | RNAcompete 7-mer binding Z-score
CCUCCGC | -0.519
GAUCACG | -0.155
UUGUGAC | -0.324
AGCCCAC | -0.529
AUUUUCA | -0.922
UCGCUAG | -0.526
UCGACUA | -0.639
UUCGUCG | -0.545
AUCCCGA | -0.906
ACUCGAG | -0.246
UGAUGGA | 1.94
CCACGUA | -0.578
ACCCGAU | -0.792
UAUCUUG | -0.642
GUCCAAU | -0.571
GGCGCUG | 0.41
GUGUAGU | 0.894
UAUCGGG | 0.875
ACAACCC | -0.526
GAGGCGA | 1.12
GUUGAUC | -0.0934
ACCCCUC | -0.587
AAUGUUC | -0.636
CCUUCUG | -0.769
UGCGGAC | 0.384

Sequence | RNAcompete 7-mer binding Z-score
UACUCAA | -0.672
UAUAACC | -0.727
AUAGGUG | 2.64
GACCCUC | -0.759
CUGGUUU | -0.0252
UCCAAUG | -0.513
AACCCGG | -0.431
CCAUUCG | -0.802
UCGAGGA | 0.904
CAUACGG | 0.287
CGUGACG | -0.149
CGGGAGG | 3.02
UGAGCAG | 0.644
UUUGCUA | -0.675
GCCAGAA | -0.629
CCUAUCC | -0.922
GAAAAUC | -0.269
UGCCUCC | -0.506
GGCUAGU | 0.102
CCACUUG | -0.724
UAAUGAG | 0.186
ACCCCGC | -0.412
GGCGUGU | 0.693
ACGGUUU | 0.339
CACCUUG | -0.516

Sequence | RNAcompete 7-mer binding Z-score
UCAGAGG | 0.498
AACGUGU | -0.0285
AAUAGUU | -0.373
CCCCAAC | -0.376
UUUACGU | -0.681
GCCGAAA | -0.464
CAUCAUC | -0.714
CCAGCGA | -0.132
CCUUUUC | -1.01
GGCGACG | 0.988
GUACGGA | 1.42
GUCCCCU | -0.318
UACGCAC | -0.548
AAAACAU | -0.428
GGAGAGG | 3.41
GAUUUAC | -0.467
GCACCAU | -0.701
GUCACUG | -0.155
CCACUAU | -0.639
UGCACCG | -0.311
AUUUUGG | 0.296
CAUCUGG | -0.418
CCUCCGG | -0.194
AUAGUUU | -0.503
AAUUGCG | -0.0317

Sequence | RNAcompete 7-mer binding Z-score
GGCGAGA | 1.35
CUCCAGA | -0.623
AUUUAUC | -0.691
GAGUUUG | 0.553
ACGAGCG | 0.946
GCUCUUG | -0.539
GACGCUA | -0.607
GUCCAAG | -0.175
GCUUUAG | -0.535
GGAUCUC | -0.246
UUGCCGU | -0.659
AAACCCC | -0.597
AGAGGUA | 1.69
UAGACAG | 0.345
ACACAUG | -0.116
GAUGGCG | 1.53
AGAAAUU | -0.366
UCCUCCU | -0.782
UGAUCGU | -0.483
GGCUGCA | 0.426
CGGUCGU | -0.149
GAAAACU | -0.236
CCGCGAG | -0.506
AAGUAUA | -0.142
GCGACCU | -0.522

Sequence | RNAcompete 7-mer binding Z-score
ACCCGCU | -0.685
UGCAUGG | 1.31
GGAACCU | -0.149
UCAUGAG | -0.288
GGACGUC | 0.166
CCUGAAG | -0.386
CCUCAUG | -0.694
ACUUUCC | -0.964
UCGGAAC | -0.145
CCUCUUG | -0.642
UAUCUCG | -0.756
UAGAGCA | 0.241
CCAAUCA | -0.681
CGUCUGC | -0.759
AUCCCUC | -0.75
CUUGACC | -0.941
AAUUCGG | -0.132
CAUAUGC | -0.529
UAUUACU | -0.545
GGCCAGU | -0.149
CCCAGCA | -0.574
ACCGACA | -0.779
CCUCAAG | -0.548
CAGUAGA | 0.231
AGCGUCU | -0.672

Sequence | RNAcompete 7-mer binding Z-score
ACACGCA | -0.568
UUCUUGG | -0.236
UCACAGC | -0.49
AAGUUAC | -0.275
GGAAAAA | 1.86
GCACAUG | 0.0885
UGGCUGG | 1.37
AGCUCUC | -0.552
AACUACC | -0.753
CGCACAC | -0.366
UUAUGUC | -0.678
CUGGAGC | 0.41
CCAUAUU | -0.863
UCCGAAA | -0.678
CAAUCAA | -0.652
GAGAGCC | -0.353
UAUAGCA | -0.132
CAUGAUC | -0.396
AAGCCCG | -0.681
GCAAUAC | -0.311
GGUAUUG | 1.51
CCACUCG | -0.545
UUGUAUC | -0.636
UCCAUAC | -0.792
GACGCUG | -0.396

Sequence | RNAcompete 7-mer binding Z-score
UGAGCCU | -0.717
UAGUUAA | -0.373
GAAGAGA | 1
UUCCCGA | -0.828
ACAUGAG | 0.251
GGAUGUG | 3.43
UGCCUGC | -0.503
UUCCCUG | -0.662
AGCCUGC | -0.662
CUCCCUC | -0.431
CUCACAA | -0.763
UUCACUA | -0.675
GUACGAG | 0.582
UUUAUUG | -0.568
UGAUUAA | -0.158
AAGCCAA | -0.405
AUGGUAU | 1.14
GAAACAG | 0.865
UAUCGAG | 0.0593
AACCCGU | -0.87
GUUGGAA | 1.84
CUGCUUA | -0.72
GAACCCA | -0.646
GAUUCGU | -0.402
CGACGCU | -0.642

Sequence | RNAcompete 7-mer binding Z-score
GAAUCUC | -0.662
CCAUUCU | -0.899
ACGCUUG | -0.675
GUUACUA | -0.253
GUACGGU | 1.21
AUACCUG | -0.642
AAUGAAA | -0.288
AUAUACC | -0.636
CAGCCCG | -0.461
GACUGCC | -0.717
UUCCUAC | -0.824
UGGCCUA | -0.149
CGACGUC | -0.604
CGCUAUG | -0.246
CGACCAC | -0.454
UAGAUUG | 0.128
AAUCUCC | -0.811
AGCUCCU | -0.665
GCAUUUA | -0.587
CUGUCUU | -0.889
CCUACUA | -0.85
GGAGAAA | 1.68
GAAUAGA | 0.777
GACGAAG | 1.45
CCUAAAG | -0.444

Sequence | RNAcompete 7-mer binding Z-score
AUCAUAU | -0.474
ACAUUAU | -0.633
CUAUAAU | -0.727
UGCGGUA | 0.504
ACAAGUG | 0.254
GUCACAC | -0.171
AGGUUCC | -0.197
AAUGUCU | -0.639
CGAGAUC | -0.259
ACCUCAG | -0.62
CCGAUUA | -0.591
AGAUCGU | -0.438
GCGUAAG | 0.534
AAUUAAG | 0.0203
ACCGAUC | -0.756
GACUAUU | -0.776
AAUCACG | -0.386
UGCACAG | -0.0122
UCCGUGG | 0.332
AGCUCAG | -0.428
GCAGUGA | 0.179
GUGUACG | 1.1
AAGCAUG | -0.035
GCAGGUG | 1.92
CGGAAAG | 1.84

Sequence | RNAcompete 7-mer binding Z-score
GCUUAGU | -0.178
CGCGAAC | -0.438
ACAUCGG | 0.137
AAAGAAU | -0.0382
CUUAGUU | -0.526
UUUUGAC | -0.893
UUUUGGG | 1.35
UUCAUUU | -0.902
UUCACUU | -0.805
UAAAGGC | 0.472
UACCGUA | -0.565
UCAUGAA | -0.509
UUUUCUU | -0.772
CCCUCCG | -0.373
UAAAUUC | -0.639
CACAGGA | 0.303
GCGCGUG | 0.712
